# The list shows a part of the results.
# B1: CrataBL (Crataeva tapia), C0HJA4 (protein)
# chain: AILTGVPYYILPSTSRAGFSPDNLRKNTSQLSCPLDLITQLRFPRRIGVPVIFTPQNSSLKVVPLSHNLNIHTCSDLWFCPESKIWTVKSSLTHGGSVVTTGGTFRSLGSWFRIERHGDSYKLVHCPRGSTPCRDVGIETVGGGGRRYLAPRDRPLAVRFTRASG
# Legend:
# Experiment in all cases: glycan array binding signal (z-score within array); higher = stronger binding
# Details in all cases: glycan notation: IUPAC condensed, linker removed
# Gal(a1-3)Gal = biological target: Gal(a1-3)Gal
# Outline: (§1)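 Glycan array data were curated from 3228 arrays in the Consortium for Functional Glycomics database and kept only where the protein sequence was available. Glycan names were converted to IUPAC-condensed notation, and columns mapping to the same glycan were averaged. The binding signal is a within-array Z-score, averaged across arrays of the same protein sequence at different concentrations or buffers and across linkers. Negative Z-scores can be read as non-binding.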
# Gal(a1-3)Gal(b1-3)GlcNAc = biological target: Gal(a1-3)Gal(b1-3)GlcNAc
# Outline: as §1
# [1] = biological target: Gal(a1-3)Gal(b1-3)GlcNAc(b1-2)Man
# Outline: as §1
# [2] = biological target: Gal(a1-3)Gal(b1-3)GlcNAc(b1-2)Man(a1-3)[Gal(a1-3)Gal(b1-3)GlcNAc(b1-2)Man(a1-6)]Man(b1-4)GlcNAc(b1-4)GlcNAc
# Outline: as §1
# [3] = biological target: Gal(a1-3)Gal(b1-3)GlcNAc(b1-3)GalNAc
# Outline: as §1
# [4] = biological target: Gal(a1-3)Gal(b1-3)GlcNAc(b1-6)GalNAc
# Outline: as §1
# [5] = biological target: Gal(a1-3)Gal(b1-3)[Fuc(a1-4)]GlcNAc(b1-2)Man(a1-3)[Gal(a1-3)Gal(b1-3)[Fuc(a1-4)]GlcNAc(b1-2)Man(a1-6)]Man(b1-4)GlcNAc(b1-4)GlcNAc
# Outline: as §1
# Gal(a1-3)Gal(b1-4)Glc = biological target: Gal(a1-3)Gal(b1-4)Glc
# Outline: as §1
# Gal(a1-3)Gal(b1-4)GlcNAc = biological target: Gal(a1-3)Gal(b1-4)GlcNAc
# Outline: as §1
# [6] = biological target: Gal(a1-3)Gal(b1-4)GlcNAc(b1-2)Man
# Outline: as §1
# [7] = biological target: Gal(a1-3)Gal(b1-4)GlcNAc(b1-2)Man(a1-3)[Gal(a1-3)Gal(b1-4)GlcNAc(b1-2)Man(a1-6)]Man(b1-4)GlcNAc(b1-4)GlcNAc
# Outline: as §1
# [8] = biological target: Gal(a1-3)Gal(b1-4)GlcNAc(b1-3)GalNAc
# Outline: as §1
# [9] = biological target: Gal(a1-3)Gal(b1-4)GlcNAc(b1-6)GalNAc
# Outline: as §1
# [10] = biological target: Gal(a1-3)Gal(b1-4)[Fuc(a1-3)]GlcNAc
# Outline: as §1
# [11] = biological target: Gal(a1-3)Gal(b1-4)[Fuc(a1-3)]GlcNAc(b1-2)Man(a1-3)[Gal(a1-3)Gal(b1-4)[Fuc(a1-3)]GlcNAc(b1-2)Man(a1-6)]Man(b1-4)GlcNAc(b1-4)GlcNAc
# Outline: as §1
# Gal(a1-3)GalNAc = biological target: Gal(a1-3)GalNAc
# Outline: as §1
# [12] = biological target: Gal(a1-3)[Gal(a1-4)]Gal(b1-4)GlcNAc
# Outline: as §1
# [13] = biological target: Gal(a1-4)Gal(b1-3)GlcNAc(b1-2)Man(a1-3)[Gal(a1-4)Gal(b1-3)GlcNAc(b1-2)Man(a1-6)]Man(b1-4)GlcNAc(b1-4)GlcNAc
# Outline: as §1
# Gal(a1-4)Gal(b1-4)Glc = biological target: Gal(a1-4)Gal(b1-4)Glc
# Outline: as §1
# Gal(a1-4)Gal(b1-4)GlcNAc = biological target: Gal(a1-4)Gal(b1-4)GlcNAc
# Outline: as §1
# [14] = biological target: Gal(a1-4)Gal(b1-4)GlcNAc(b1-2)Man(a1-3)[Gal(a1-4)Gal(b1-4)GlcNAc(b1-2)Man(a1-6)]Man(b1-4)GlcNAc(b1-4)GlcNAc
# Outline: as §1
# [15] = biological target: Gal(a1-4)Gal(b1-4)GlcNAc(b1-3)Gal(b1-4)Glc
# Outline: as §1
# Gal(a1-4)GlcNAc = biological target: Gal(a1-4)GlcNAc
# Outline: as §1
# Gal(a1-6)Glc = biological target: Gal(a1-6)Glc
# Outline: as §1
# Gal(b1-2)Gal = biological target: Gal(b1-2)Gal
# Outline: as §1
# Gal(b1-3)Gal = biological target: Gal(b1-3)Gal
# Outline: as §1
# Gal(b1-3)Gal(b1-4)GlcNAc = biological target: Gal(b1-3)Gal(b1-4)GlcNAc
# Outline: as §1
# Gal(b1-3)GalNAc = biological target: Gal(b1-3)GalNAc
# Outline: as §1
# [16] = biological target: Gal(b1-3)GalNAc(a1-3)[Fuc(a1-2)]Gal(b1-4)Glc
# Outline: as §1
# [17] = biological target: Gal(b1-3)GalNAc(a1-3)[Fuc(a1-2)]Gal(b1-4)GlcNAc
# Outline: as §1
# Gal(b1-3)GalNAc(b1-3)Gal = biological target: Gal(b1-3)GalNAc(b1-3)Gal
# Outline: as §1
# [18] = biological target: Gal(b1-3)GalNAc(b1-3)Gal(a1-4)Gal(b1-4)Glc
# Outline: as §1
# [19] = biological target: Gal(b1-3)GalNAc(b1-4)Gal(b1-4)Glc
# Outline: as §1
# [20] = biological target: Gal(b1-3)GalNAc(b1-4)[Neu5Ac(a2-3)]Gal(b1-4)Glc
# Outline: as §1
# Gal(b1-3)GlcNAc = biological target: Gal(b1-3)GlcNAc
# Outline: as §1
# [21] = biological target: Gal(b1-3)GlcNAc(a1-3)Gal(b1-4)GlcNAc
# Outline: as §1
# [22] = biological target: Gal(b1-3)GlcNAc(a1-6)Gal(b1-4)GlcNAc
# Outline: as §1
# Gal(b1-3)GlcNAc(b1-2)Man = biological target: Gal(b1-3)GlcNAc(b1-2)Man
# Outline: as §1
binder,measurement,setting,value
B1,glycan array binding signal (z-score),Gal(a1-3)Gal,-0.036
same,glycan array binding signal (z-score),Gal(a1-3)Gal(b1-3)GlcNAc,-0.369
same,glycan array binding signal (z-score),[1],0.006
same,glycan array binding signal (z-score),[2],-0.065
same,glycan array binding signal (z-score),[3],-0.383
same,glycan array binding signal (z-score),[4],-0.144
same,glycan array binding signal (z-score),[5],0.029
same,glycan array binding signal (z-score),Gal(a1-3)Gal(b1-4)Glc,-0.243
same,glycan array binding signal (z-score),Gal(a1-3)Gal(b1-4)GlcNAc,-0.431
same,glycan array binding signal (z-score),[6],-0.525
same,glycan array binding signal (z-score),[7],-0.367
same,glycan array binding signal (z-score),[8],-0.198
same,glycan array binding signal (z-score),[9],-0.494
same,glycan array binding signal (z-score),[10],-0.475
same,glycan array binding signal (z-score),[11],-0.521
same,glycan array binding signal (z-score),Gal(a1-3)GalNAc,-0.343
same,glycan array binding signal (z-score),[12],-0.022
same,glycan array binding signal (z-score),[13],-0.451
same,glycan array binding signal (z-score),Gal(a1-4)Gal(b1-4)Glc,0.248
same,glycan array binding signal (z-score),Gal(a1-4)Gal(b1-4)GlcNAc,0.037
same,glycan array binding signal (z-score),[14],-0.512
same,glycan array binding signal (z-score),[15],-0.302
same,glycan array binding signal (z-score),Gal(a1-4)GlcNAc,-0.5
same,glycan array binding signal (z-score),Gal(a1-6)Glc,-0.393
same,glycan array binding signal (z-score),Gal(b1-2)Gal,-0.454
same,glycan array binding signal (z-score),Gal(b1-3)Gal,-0.466
same,glycan array binding signal (z-score),Gal(b1-3)Gal(b1-4)GlcNAc,-0.064
same,glycan array binding signal (z-score),Gal(b1-3)GalNAc,-0.182
same,glycan array binding signal (z-score),[16],-0.124
same,glycan array binding signal (z-score),[17],-0.391
same,glycan array binding signal (z-score),Gal(b1-3)GalNAc(b1-3)Gal,0.043
same,glycan array binding signal (z-score),[18],-0.111
same,glycan array binding signal (z-score),[19],0.008
same,glycan array binding signal (z-score),[20],0.451
same,glycan array binding signal (z-score),Gal(b1-3)GlcNAc,-0.448
same,glycan array binding signal (z-score),[21],-0.494
same,glycan array binding signal (z-score),[22],-0.374
same,glycan array binding signal (z-score),Gal(b1-3)GlcNAc(b1-2)Man,-0.207
